# Hit rate of the full screen: of about 150,000 compounds, about 540 (0.36%) showed an effect of 50% or more. Some of the results follow.
# System: Plasmodium falciparum
# Experiment: Primary screen in NF54 nanoGlo assay, in single point, at 2uM, 72h; a lower Z score goes with more inhibition
# Type: functional, Erythrocyte
# Conditions: timepoint 72 hour
Structure (SMILES),% Inhibition [%],Z score
CCOc1ccnc(N(C)CCc2ccncc2)n1,-7,1.25
CC(NC(=O)Cc1ccccc1C(=O)NC(C)c1ccncc1)c1ccncc1 (stereo not given),-6,0.71
CN(C)CCOC(=O)CC[C@H]1CCOC(C)(C)C1,39,-5.02
Cc1cc(S(=O)(=O)[C@H]2CS(=O)(=O)C[C@@H]2N2CCN(c3ccccc3F)CC2)ccc1F,-7,0.92
CCOC(=O)[C@H]1CCCN(C(=O)CN2CCN(c3ccc(F)c(F)c3)C2=O)C1,-12,1.4
OC[C@H]1CCCN1c1cccc(C(F)(F)F)n1,-7,0.97
OC[C@@H](Cc1ccccc1)n1cnnc1,-2,0.28
CC1CC1C(=O)NCc1cccc(NC(=O)NCc2ccncc2)c1 (stereo not given),0,-0.06
Cc1ccc([C@@H]2c3[nH]c4ccccc4c3CCN2S(=O)(=O)c2ccc(Cl)cc2)cc1,3,-0.64
CC(C)(C)c1nc(C#N)c(NC[C@@H](c2ccco2)N2CCCC2)o1,1,-0.11
Cc1cc(-c2ccccc2)nc2oc3c(N4CCOCC4)ncnc3c12,-44,5.19
COc1ccc(CCNC(=O)C[C@H](c2ccc(C(C)(C)C)cc2)c2c[nH]c3ccccc23)cc1OC,-10,1.32
COCc1nc(C(=O)N[C@H](c2nccs2)C(F)(F)F)co1,-1,0.13
Cc1ccc2ccc3cc(C(=O)Nc4ccc(C)c(C)c4)[nH]c3c2n1,1,-0.22
O=C(CCOc1ccccc1)N(Cc1cccnc1)c1ccc(F)cc1,-5,0.67
Cc1nn(C)c(C)c1OC[C@@H](O)COC(C)C,12,-2.16
CCC(C)C(NS(C)(=O)=O)C(=O)NCC1(c2ccccc2)CC1 (stereo not given),-6,1.21
CC(C)CN(CC(C)C)C(=O)c1ccco1,2,-0.32
CCC(c1cccs1)N1C(=O)[C@H]2CN(S(=O)(=O)c3c(C)noc3C)C[C@H]2C1=O (stereo not given in full),-6,0.82
COC(=O)CCc1cncc(NC(=O)[C@](C)(N)c2ccc(S(C)(=O)=O)cc2)c1,-11,1.2
N#Cc1ccc(OCC=Cc2ccccc2)nc1,-2,0.25
Cc1nc(C(C)(C)NC(=O)c2ccn(C)c2C)sc1C,-6,0.78

Structure (SMILES),% Inhibition [%],Z score
CCN1C[C@H](CN(C)c2ccc(S(=O)(=O)C(F)F)cc2)Oc2ccccc21,0,-0.05
Clc1cnn([C@H]2CCN(Cc3cc4cccnc4o3)C2)c1,0,-0.01
Cc1cc(CC(=O)N2CCNC[C@H]2c2ccncc2)no1,19,-2.43
CC(=O)N(C)c1nc2ccccc2n(CC(=O)N2CCc3ccccc32)c1=O,-4,0.66
Cc1cc(NC(=O)COC(=O)c2ccccn2)no1,-6,1.17
CCCC[C@H](CC)CNC(=O)c1cccnc1OCC,-4,0.44
Cn1cc(N2C(=O)C[C@H](N(Cc3ccccc3)C3CC3)C2=O)cn1,3,-0.44
CCn1cc(S(=O)(=O)NC2CC(C)(OC)C2(C)C)cn1 (stereo not given),-9,1.22
Cc1cc(CS(=O)(=O)CC(=O)NCC2CC2)no1,-5,0.8
O=C(NC1CCCCC1)[C@@H](c1ccc(Cl)cc1)N1CCCCC1,-2,0.31
CC1(C)CNC[C@@H](NC(=O)OC(C)(C)C)C1,-9,1.07
COc1ccc(CCC(=O)N2CCC[C@H]2c2cccs2)cc1,-8,1.56
O=C(c1ccco1)N1CCC(Oc2nncs2)CC1,11,-1.35
CC(=O)N1CCCC1C1CCCN1c1ncnc2ccccc12 (stereo not given),12,-1.6
CC1CN(c2cc(Cl)ccc2Cl)CCN1CC1CNC(=O)C1 (stereo not given),1,-0.25
O=C(CCC1CCCC1)Nc1ccncc1,-12,1.57
O=C1CN(S(=O)(=O)c2ccccc2Cl)C[C@H]2c3ccccc3CCN12,-2,0.33
COc1ccc2cc(-c3nc(CCN(C)C(=O)c4ccco4)no3)[nH]c2c1,-15,2.89
O=C(NC1CCC1)[C@H]1C[C@@H](c2ccccc2)N2CCC[C@H]12,-9,1.63
Cc1nc[nH]c1-c1nccn1CCc1cnn(-c2ccccc2)c1,-26,3.39
COc1ccc(-c2csc(N(c3ccccc3Cl)[C@@H](C)C(=O)N(C)C)n2)cc1,-2,0.3
O=C(CN1CCOCC1)N1CCc2cc(Br)ccc21,-24,2.19

Structure (SMILES),% Inhibition [%],Z score
O=C(NC1CC[C@@H](O)[C@@H](O)C1)c1ccc(OC(F)F)cn1 (stereo not given in full),4,-0.43
Nc1nc(N2CCC(Cc3ccccc3)CC2)nc2c1[C@H](C(=O)Nc1ccc3c(c1)OCO3)CC(=O)O2,-15,1.65
Clc1ccc(COc2ccccc2CNCc2ccc3c(c2)OCO3)c(Cl)c1,-11,1.09
Cc1nc(C(=O)NCCc2c[nH]c3ccccc23)c(C)s1,12,-1.81
CC[C@H](C)NC(=O)c1coc(CN(Cc2ccc(F)cc2)Cc2ccc(F)cc2)n1,3,-0.45
O=C(NCc1ccccc1C(F)(F)F)c1cc2n(n1)C[C@@H](c1ccc3c(c1)OCO3)OC2,-20,1.81
COc1ccc(/C=C/CN2CCC(Oc3cc(OC)ccc3C(=O)N3CCCC3)CC2)cc1,1,-0.07
CCCN(CC(=O)N1CCc2sccc2C1COc1ccc(C)cc1C)CC(C)O (stereo not given),-14,1.31
C#CCNC(=O)c1ccc(N2CCn3c(nnc3C(F)(F)F)C2)nc1,-2,0.23
COC(=O)C1CCCN1CC(=O)N1C(C)CCCC1C (stereo not given),3,-0.29
Cc1nc2ncc(-c3cnc4c(C)cccc4c3)cn2n1,11,-1.4
Cc1cc(C)cc(N(C)S(=O)(=O)c2ccsc2-c2nc(-c3ccccc3C)no2)c1,-12,1.69
O=C(OCC(=O)N(C1CCCCC1)[C@H]1CCS(=O)(=O)C1)c1cccc(F)c1,6,-1.1
NC1COCC1Oc1ccc2ccccc2n1 (stereo not given),-7,1.05
COc1cccc(-c2ncc(CN3CCC(Cc4nncn4C)CC3)s2)c1,-11,2.11
Cc1ccc2c(c1)CCCN2C(=O)c1cnn2c1OCCC2,-12,2.13
Cc1[nH][nH]c(=O)c1CC(=O)NCc1cccnc1Oc1ccc(F)c(F)c1,-9,1.01
Cc1nc[nH]c1C(=O)NCC1CCN(c2ncnc(C)c2C)CC1,-1,0.08
O=S(=O)(c1cncc(F)c1)N1CCC[C@H](Cn2cncn2)C1,-9,1.11
COc1ccsc1S(=O)(=O)N(C)Cc1scnc1C,-2,0.21
Cc1cc(C(=O)N2Cc3cnn(CCO)c3C2)cc2sc(N)nc12,-4,0.67
Cc1cccc(C2CC(NCC3(C(N)=O)CCOCC3)C2)c1 (stereo not given),-5,0.59

Structure (SMILES),% Inhibition [%],Z score
Cc1ccc2oc(-c3nccn3CCN(C)S(C)(=O)=O)c(C)c2c1,-3,0.42
CCN(CCC1CCN(C(=O)Nc2ccc3c(c2)OCO3)CC1)CC1CC1,-12,2.25
Cc1c(NS(=O)(=O)c2coc3ccccc23)noc1C(C)(C)C,-15,3.02
CCOC(=O)[C@@H]1CCCCN1Cc1cn(CCc2ccnn2C)nn1,-3,0.46
CN(CC1(N(C)C)CCC1)C(=O)Nc1nnc(C(F)F)s1,-12,1.23
O=C(NC1CCCCc2cc(Br)ccc21)N[C@@H]1CCOC1 (stereo not given in full),7,-0.98
CCOc1ccccc1CNC(=O)C1CCN(c2ccc(-c3cccs3)nn2)CC1,-10,1.96
CCCc1nc(C(=O)NC[C@H]2CN(c3nncs3)CCO2)co1,-4,0.55
Cc1c(C2CCCC2)nc(N)c(C#N)c1-c1cnc(NC[C@H]2CCCO2)nc1,-9,1.51
O=C(NC[C@H]1CCCO1)c1cc(S(=O)(=O)N2CCCCC2)ccc1Cl,-8,1.03
Cc1cc(C(=O)N[C@H]2CCN(Cc3ccccn3)C[C@@H]2O)c(C)o1,1,-0.09
O=C(CN1C(=O)c2ccccc2C1=O)Nc1ccc(F)c(S(=O)(=O)Nc2cccc(C(F)(F)F)c2)c1,-2,0.28
Cn1cc(C(=O)NC2CC3CC3C2)c(-c2ccco2)n1 (stereo not given),-6,0.83
C=C[C@](C)(CC)C(=O)NCc1ncn(C)n1,-8,0.98
CC(C)C[C@H](NC(=O)c1ccccn1)c1nc2ccccc2[nH]1,-11,1.35
Cc1cc(OCC(=O)NC2CCCCC2C)nnc1C (stereo not given),8,-1.52
O=C(O)c1ccc(CN2CC[C@H](c3ccccc3)[C@H](CO)C2)s1,-4,0.77
COCc1cnc(NC(=O)[C@@H]2CN(C(C)C)CCO2)s1,-2,0.21
O=C(NCCNc1cc(Nc2ccccn2)ncn1)c1cccc(Cl)c1,0,0.02

# — ChEMBL document CHEMBL4888484, “Replenishing the malaria drug discovery pipeline: Screening and hit evaluation of the MMV Hit Generation Library 1 (HGL1) against asexual blood stage Plasmodium falciparum ,using a nano luciferase reporter read-out” (2022)
